Data as given in article PMC12136788.
Some of the results follow.

T1: UNK ZnF1-3 (human, UniProt Q9C0B0 31-174)
T1 sequence: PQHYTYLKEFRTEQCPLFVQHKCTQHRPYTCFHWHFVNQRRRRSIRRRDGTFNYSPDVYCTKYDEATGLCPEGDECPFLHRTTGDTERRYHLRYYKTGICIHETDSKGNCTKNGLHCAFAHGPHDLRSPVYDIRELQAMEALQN

B1: 8618895_8619015_1930_3pUTR_ENSMUSG00000057880_ENSMUST00000065987|mouse|control|control (ssRNA)
RNA: GGGAGUUCUACAGUCCGACGAUCCCAGGGUUGACAGAAAUAUGGCCUCAUGGCCUUUCCUAAGACAGUGUUCAAUGCUUACACAGAACUUCUGGGCUUUAACCAAUGGUCACCAUGAGCUCUGCAAGGAGCGAUCCUCAAACCCAACAGAGGAUUGAGCAUCA
B2: chr14:76815493:76815494:+_ENSMUSG00000022010_ENSMUST00000110888|mus_hu|FALSE|FALSE (ssRNA)
RNA: GGGAGUUCUACAGUCCGACGAUCGGGGAGGAAAAGCGAGAAAUGCCCACCUUCUCCGGCCAACUCCGAAGCCGCCUCAGCCCCCUCCUCCCGCCGCGUCGGCGGCCGCUGCAAAGCCCUCCCGGCCGCUCUGCACGGAGGCAGCAACAGAGGAUUGAGCAUCA
B3: chr11:130013608:130013609:+_ENSG00000084234_ENST00000528499|hu_mus|motif|central (ssRNA)
RNA: GGGAGUUCUACAGUCCGACGAUCUAGAGCAUGUGUGAGACAAUACAAUAGAAGUGGCAUUUCUAAUUUAAAAAAAGAAAACGGCAUCCAUCAGAUAUCUGCAAUAGAUCUUUUUCUUUCAUUUCACUUAAGGUUUAUAUAUCACAACAGAGGAUUGAGCAUCA
B4: chr1:39494447:39494448:+_ENSG00000168653_ENST00000372967|hu_mus|hu_hu_hu_mus_False|28_88 (ssRNA)
RNA: GGGAGUUCUACAGUCCGACGAUCGCACCGAGCGGCGUUCUUAUAGGGCUGUUCACCGCUUAGGAACAUAAAGUGCCGGUCCAGGCUGAUGCCCAGCUUUUUCUGUAUGUCCAAGAAAGGCAUGGCUCUGCAGUGCCCUUGUCACAACAGAGGAUUGAGCAUCA
B5: chr11:87793471:87793472:-_ENSMUSG00000020483_ENSMUST00000020775|mus_mus|mus_mus_mus_hu_False|38_68 (ssRNA)
RNA: GGGAGUUCUACAGUCCGACGAUCUGGACUUGAAAAUAAAAGAAUAAGCUGGAUCCCCCACCCCCCCACAGUGUCAACCCUACACGAGAGUUUUGAAUGAUUCAUAAGAAAAUCAGCAGCUCAAACGGCAAUGACCACCCCACCCAACAGAGGAUUGAGCAUCA
B6: chr7:140404665:140404666:+_ENSG00000090266_ENST00000247866|hu_hu|hu_hu_hu_mus_False|8_98 (ssRNA)
RNA: GGGAGUUCUACAGUCCGACGAUCUGCUCCUACUCGUAGGCUGAGUCUACAGUGUCAGUCCUCGUCAUCAGGAGGGAUUCCCAGUUCUUCAUCUGUCCACUGUGAAGGAUCUGGAUAUGAAAAGUGACCCAGCACCUCAUCCGACAACAGAGGAUUGAGCAUCA
B7: 62929326_62929446_2183_CDS_ENSG00000061987_ENST00000546600|human|control|control (ssRNA)
RNA: GGGAGUUCUACAGUCCGACGAUCAAGAGCAUAAUGGGGAGGCAGGGAACCUUUGCAUAUUGCAGUUAUAAAGGCAUCUCUUGAAGUUACAAGGCCCAGUCUUCCACAAAGAGCAGCCAUAGUCAGUUCAGCUUUUAAAAUAUUCAACAGAGGAUUGAGCAUCA
B8: 134014868_134015939_810_3pUTR_ENSG00000166086_ENST00000529443|human|control|control (ssRNA)
RNA: GGGAGUUCUACAGUCCGACGAUCGACUUCCAUCUCCUGCUCCUCACACCUGGCUGAGCCUGCGUCAUUGGAAGCAAUGCAGUAGUACUGCCCAGAGUCGUCCUUGUGAACAGCAGUGAACACCAAAGUGCCUGUUUCAGAGUUCAACAGAGGAUUGAGCAUCA
B9: chr12:48362563:48362564:+_ENSG00000134291_ENST00000256686|hu_hu|hu_hu_hu_mus_False|1_8 (ssRNA)
RNA: GGGAGUUCUACAGUCCGACGAUCUCCGUCAAGCCCUUCGAUAGACCCUUGCGGGGGAAACUGUAAUCACUUUGUAUGGGGAAGGAAAAGAAACGCCAAAAACUUUCCAAAAAGCGGGGGUGGGGUGUCCCAGGCCUUUGGGAACAACAGAGGAUUGAGCAUCA
B10: chr12:16048344:16048345:+_ENSG00000023734_ENST00000419869|hu_hu|FALSE|FALSE (ssRNA)
RNA: GGGAGUUCUACAGUCCGACGAUCAGAUCGUCCAUAAGUUAUAACCAAAAUCUCUCCCUCAGGAAUAUAUUCCAUACUACUAACAGACAUAUUAAAAUUUAGAGAUUUCACUUCUGUCAUAGUAGCAUGAUCCCAAAGUCGAACCAACAGAGGAUUGAGCAUCA
B11: chr15:76911001:76911002:-_ENSMUSG00000033565_ENSMUST00000166610|mus_mus|FALSE|FALSE (ssRNA)
RNA: GGGAGUUCUACAGUCCGACGAUCCUCAAGAGCAUGACAAAAGAAAACACACGUUUACAUUAGAUGUUCACCGUGCCCACUAUUGUUUCCUAUUUGAAAACAGUGCAAACAGGUAACUUAUGCUUUAAACACCAAGACCCCUUCCAACAGAGGAUUGAGCAUCA
B12: chr19:16212804:16212805:+_ENSG00000167460_ENST00000300933|hu_mus|hu_hu_hu_mus_False|28_98 (ssRNA)
RNA: GGGAGUUCUACAGUCCGACGAUCAACAAUUCUGGAGAAGAACAUCAAUGUAACAUGGAACAGCAUUAAAGCUCAGUCAGAAGGCACAUGGGCAACAAUGAUCACCCCCCAAGCAUUGCUUGGAAUGCUUAAAGACAAUCUGUUCAACAGAGGAUUGAGCAUCA
B13: chr11:48615247:48615248:+_ENSMUSG00000020372_ENSMUST00000020640|perfect_dup|FALSE|FALSE (ssRNA)
RNA: GGGAGUUCUACAGUCCGACGAUCUCCGUCCCAGGAGCCCGAGAGGGCAAACUGACCAUCAGAGGAGAUAACAACAUCACUAACGAAGUGGGAGUGACCUCUCAGAGCACGCUGUGGUAUGCCAUAGUUGGUCUCAUCUCUGGUCAACAGAGGAUUGAGCAUCA
B14: 37390388_37391763_1001_3pUTR_ENSG00000134138_ENST00000382766|human|control|control (ssRNA)
RNA: GGGAGUUCUACAGUCCGACGAUCCAGCUCAUCGUACCUUUGCGCCAUCAGUCUGCGCUCCAAUAAACUCCUGGAUGUGUCGUAUAUUUAAUAUCCCAGUCCGGAUAAGAAAGUGAUCUAGGCUGAAGAUUCCUUUUUUUUUUUCAACAGAGGAUUGAGCAUCA

What follows are binders tested against T1, UNK ZnF1-3 (assay: nsRBNS (natural sequence RNA bind-n-seq); RBNS binding buffer (assumed for nsRBNS): 25 mM Tris pH 7.5, 150 mM KCl, 3 mM MgCl2, 0.01% Triton X-100, 500 ug/ml BSA, 20 U/ml SUPERase-In, 4 C; UNK is unkempt and MSI1 is Musashi-1; names of the RNAs are library labels; protein concentration not given here; high values mean tight binding).

Binder | binding signal
B1 | 0.756 enrichment R
B2 | 0.69 enrichment R
B3 | 1.76 enrichment R
B4 | 0.753 enrichment R
B5 | 2.07 enrichment R
B6 | 1.07 enrichment R
B7 | 2.1 enrichment R
B8 | 1.01 enrichment R
B9 | 2.48 enrichment R
B10 | 0.932 enrichment R
B11 | 1.05 enrichment R
B12 | 1.37 enrichment R
B13 | 1.14 enrichment R
B14 | 0.752 enrichment R
